According to the supplement of paper PMC10037445:
Over roughly 2,900 compounds, “NF-kB SEAP reporter activity, fold change vs agonist alone” has its median near 0.99; the highest 2% begin near 2.6. This is one part of the list.

Key:
RAW-Dual [1] = test: NF-kB SEAP reporter activity, fold change vs agonist alone; cytotoxicity flag (confluency mask): not cytotoxic; higher = enhanced NF-kB activity
Outline: (§1)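 After 50 nL of library stock was delivered by pin tool to RAW-Dual macrophages (50,000 cells/well, DMEM, 384-well plates), a PRR agonist was added 1 h later and the plates were kept at 37 °C, 5% CO2. Twenty hours later, IRF was read from supernatant by QuantiLuc luminescence and NF-κB by QuantiBlue absorbance at 620 nm. Reporter activity is stated as fold change over agonist-alone wells. Wells with IncuCyte confluency under 70% of agonist controls in both mask sets were counted as cytotoxic.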

RAW-Dual [2] = test: NF-kB SEAP reporter activity, fold change vs agonist alone; higher = enhanced NF-kB activity; conditions: library stock concentration (final ~1000-fold dilution): 10 mM
Outline: as §1

RAW-Dual [3] = test: NF-kB SEAP reporter activity, fold change vs agonist alone; cytotoxicity flag (confluency mask): cytotoxic (confluency <70% of control); higher = enhanced NF-kB activity
Outline: as §1

[4] = agonist: ODN 1826 (TLR9) 0.5 ug/mL
[5] = agonist: Pam2CSK4 (TLR2/6) 0.1 ug/mL
[6] = agonist: Pam3CSK4 (TLR2/1) 0.1 ug/mL
[7] = cytotoxicity flag (confluency mask): not cytotoxic, agonist: MPLA (TLR4) […]
[8] = cytotoxicity flag (confluency mask): not cytotoxic, agonist: Imiquimod (TLR7) […]

SMILES: CC1(C)SC2CC(=O)N2C1C(=O)OCOC(=O)C1N2C(=O)C(NC(=O)C(N)c3ccccc3)C2S(=O)(=O)C1(C)C.Cc1ccc(S(=O)(=O)O)cc1 (stereo not given) (library stock concentration (final ~1000-fold dilution): 10 mM)
- NF-kB SEAP reporter activity (RAW-Dual [1]; agonist: LPS (TLR4) 0.1 ug/mL): 1.26
- NF-kB SEAP reporter activity (RAW-Dual [1]; [4]): 0.797
- NF-kB SEAP reporter activity (RAW-Dual [1]; [5]): 1.02
- NF-kB SEAP reporter activity (RAW-Dual [1]; [6]): 0.873

SMILES: CC1(C)SC2CC(=O)N2C1C(=O)OCOC(=O)C1N2C(=O)C(NC(=O)C(N)c3ccccc3)C2S(=O)(=O)C1(C)C.Cc1ccc(S(=O)(=O)O)cc1 (stereo not given)
- NF-kB SEAP reporter activity (RAW-Dual [2]; [7]): 1.02

SMILES: Cc1ccc(Nc2nccc(N(C)c3ccc4c(C)n(C)nc4c3)n2)cc1S(N)(=O)=O.Cl (library stock concentration (final ~1000-fold dilution): 10 mM)
- NF-kB SEAP reporter activity (RAW-Dual [1]; agonist: LPS (TLR4) 0.1 ug/mL): 1.1
- NF-kB SEAP reporter activity (RAW-Dual [1]; [4]): 0.341
- NF-kB SEAP reporter activity (RAW-Dual [1]; [5]): 0.296
- NF-kB SEAP reporter activity (RAW-Dual [1]; [6]): 0.498

SMILES: Cc1ccc(Nc2nccc(N(C)c3ccc4c(C)n(C)nc4c3)n2)cc1S(N)(=O)=O.Cl
- NF-kB SEAP reporter activity (RAW-Dual [2]; [8]): 0.92
- NF-kB SEAP reporter activity (RAW-Dual [2]; [7]): 1.2

SMILES: CCn1c(N)c(C(=O)NC)c(=O)c2ccc(C#CC(C)(O)COC)nc21 (stereo not given)
- NF-kB SEAP reporter activity (RAW-Dual [2]; [8]): 0.959
- NF-kB SEAP reporter activity (RAW-Dual [2]; [7]): 0.911

SMILES: CCn1c(N)c(C(=O)NC)c(=O)c2ccc(C#CC(C)(O)COC)nc21 (stereo not given) (library stock concentration (final ~1000-fold dilution): 10 mM)
- NF-kB SEAP reporter activity (RAW-Dual [1]; agonist: LPS (TLR4) 0.1 ug/mL): 0.812
- NF-kB SEAP reporter activity (RAW-Dual [1]; [4]): 0.853
- NF-kB SEAP reporter activity (RAW-Dual [1]; [5]): 0.977
- NF-kB SEAP reporter activity (RAW-Dual [1]; [6]): 0.99

SMILES: CCOC(=O)C1=C(C)NC(=S)NC1c1cccc(O)c1 (stereo not given) (library stock concentration (final ~1000-fold dilution): 10 mM)
- NF-kB SEAP reporter activity (RAW-Dual [1]; agonist: LPS (TLR4) 0.1 ug/mL): 0.978
- NF-kB SEAP reporter activity (RAW-Dual [1]; [4]): 1
- NF-kB SEAP reporter activity (RAW-Dual [1]; [5]): 0.948
- NF-kB SEAP reporter activity (RAW-Dual [1]; [6]): 1

SMILES: CCOC(=O)C1=C(C)NC(=S)NC1c1cccc(O)c1 (stereo not given)
- NF-kB SEAP reporter activity (RAW-Dual [2]; [8]): 1.07
- NF-kB SEAP reporter activity (RAW-Dual [2]; [7]): 1.03

SMILES: Nc1nc(OCC2CCCCC2)c2nc[nH]c2n1 (library stock concentration (final ~1000-fold dilution): 10 mM)
- NF-kB SEAP reporter activity (RAW-Dual [1]; agonist: LPS (TLR4) 0.1 ug/mL): 1.95
- NF-kB SEAP reporter activity (RAW-Dual [1]; [4]): 0.924
- NF-kB SEAP reporter activity (RAW-Dual [1]; [5]): 0.711
- NF-kB SEAP reporter activity (RAW-Dual [1]; [6]): 0.565

SMILES: Nc1nc(OCC2CCCCC2)c2nc[nH]c2n1
- NF-kB SEAP reporter activity (RAW-Dual [2]; [7]): 1.51

SMILES: CC(C)(O)c1ccccc1CCC(SCC1(CC(=O)O)CC1)c1cccc(C=Cc2ccc3ccc(Cl)cc3n2)c1 (stereo not given) (library stock concentration (final ~1000-fold dilution): 10 mM)
- NF-kB SEAP reporter activity (RAW-Dual [3]; agonist: LPS (TLR4) 0.1 ug/mL): 1.28
- NF-kB SEAP reporter activity (RAW-Dual [3]; [4]): 0.522
- NF-kB SEAP reporter activity (RAW-Dual [3]; [5]): 0.929
- NF-kB SEAP reporter activity (RAW-Dual [3]; [6]): 0.491

SMILES: CC(C)(O)c1ccccc1CCC(SCC1(CC(=O)O)CC1)c1cccc(C=Cc2ccc3ccc(Cl)cc3n2)c1 (stereo not given)
- NF-kB SEAP reporter activity (RAW-Dual [2]; cytotoxicity flag (confluency mask): cytotoxic (confluency <70% of control), agonist: Imiquimod (TLR7) […]): 0.993
- NF-kB SEAP reporter activity (RAW-Dual [2]; cytotoxicity flag (confluency mask): cytotoxic (confluency <70% of control), agonist: MPLA (TLR4) […]): 0.896

SMILES: CN1C2CCC1CC(OC(c1ccccc1)c1ccccc1)C2.CS(=O)(=O)O (stereo not given) (library stock concentration (final ~1000-fold dilution): 10 mM)
- NF-kB SEAP reporter activity (RAW-Dual [1]; agonist: LPS (TLR4) 0.1 ug/mL): 1.24
- NF-kB SEAP reporter activity (RAW-Dual [1]; [4]): 0.721
- NF-kB SEAP reporter activity (RAW-Dual [1]; [5]): 0.896
- NF-kB SEAP reporter activity (RAW-Dual [1]; [6]): 1.02

SMILES: CN1C2CCC1CC(OC(c1ccccc1)c1ccccc1)C2.CS(=O)(=O)O (stereo not given)
- NF-kB SEAP reporter activity (RAW-Dual [2]; [8]): 1.89
- NF-kB SEAP reporter activity (RAW-Dual [2]; [7]): 1.29
